Experimental data from PubChem BioAssay AID1347417 (National Center for Advancing Translational Sciences (NCATS), 2020).
Hit rate of the full screen: of about 120,000 compounds, about 5,300 (4.4%) were called active. This list was built around the results that the source calls inconclusive (neither active nor inactive); the mix of calls is not that of the screen. Calls come from the whole dose curve; as a rule, active = well fitted inhibition curve with a large enough effect; inconclusive = small, poorly fitted or top-dose-only effect; inactive = no such curve, though single readings can be large or run the other way. Where the call is inconclusive, the potency comes from a doubtful curve fit.

assay: qHTS Primary assay for Inhibitors of Plasmodium falciparum Dd2 growth in vitro; note: nearly all actives have a fitted effect of over 65% in size; conditions: P. falciparum Dd2 growth, SYBR Green, 72 h; series mostly up to 28.9 µM
How it was run: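 Infected erythrocytes (Dd2, 0.3% parasitemia, 2.5% hematocrit final) are added to compound in RPMI-1640/Albumax II medium, grown 72 h at 37C in low oxygen, then lysed with saponin/Triton-X containing SYBR Green and read by fluorescence.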
Potency is the fitted concentration of half-maximal effect; tags give direction and shape of the fitted curve.

| Compound | Potency |
| --- | --- |
| Cn1cccc1CN1CCC2(CC1)CN(Cc1ccccc1)CC2CO (stereo not given) | inconclusive: 1.12 µM [inhibitor, partial curve, poor fit] |
| Cn1nc(C2CCCCC2)cc1[C@H]1CN2CC[C@H]1C[C@@H]2CNC(=O)COc1ccccc1 | inconclusive: 2 µM [inhibitor, full curve] |
| O=C(NCc1ccccc1)[C@H]1CN2CC[C@H]1C[C@@H]2Cn1cc(-c2ccccn2)nn1 | inconclusive: 31.6 µM [inhibitor, single point] |
| CNC(=O)c1c(-c2cnn(C)c2NCCc2ccccc2)noc1C | inactive |
| CS(=O)(=O)Cc1ccc(-c2cccc(OCc3ccccc3F)c2)nc1 | inactive |
| CCOC(=O)C1(Cc2cccc(OC)c2)CCCN(Cc2cccc(C)n2)C1 (stereo not given) | inconclusive: 15.8 µM [inhibitor, partial curve, poor fit] |
| COc1ccc(-c2ccc3ncc(Nc4cc(F)ccc4OC)n3n2)cn1 | inconclusive: 3.98 µM [inhibitor, partial curve, poor fit] |
| CNC(=O)c1cc(-c2cnn(C)c2)cc2c1OCCN2Cc1cccnc1 | inactive |
| CCCCN(CC)CCNC(=O)c1cc2c(=O)n(CC)c3ccccc3c2s1 | inconclusive: 3.98 µM [inhibitor, single point] |
| COc1ccc(NC(=O)CCC2CCCN(C(=O)C3=C(C)OCCO3)C2)cc1Cl (stereo not given) | active: 3.16 µM |
| Cc1cc(C)nc(SCc2ccc(C(=O)N3CCCC[C@H](N(C)C)C3)o2)n1 | inconclusive: 14.1 µM [inhibitor, partial curve, poor fit] |
| CCNC(=O)NCC12CCC=C1N(C)C(=O)CC2 (stereo not given) | inactive |
| CN1C(=O)CCC2(CNC(=O)NC3CCCC3)CCC=C12 (stereo not given) | inactive |
| COc1ccc(NC(=O)CN2C(=O)NC3(CCS(=O)(=O)CC3)C2=O)cc1 | inactive |
| COc1cc(Cl)c(C)cc1NC(=O)Cn1c(C)cc2nc3n(c(=O)c21)CCCCC3 | inconclusive: 1.78 µM [inhibitor, single point] |
| O=C1NCc2ccccc2CC12CCCN2Cc1ccc(Cl)s1 (stereo not given) | active: 10 µM |
| CCCN1CCCC12Cc1ccccc1CN(C(=O)CCNC(C)=O)C2 (stereo not given) | inactive |
| CCCCN(CC)C(=O)C1CCCN(c2ncnc3onc(C)c23)C1 (stereo not given) | inconclusive: 10 µM [inhibitor, single point] |
| O=C(c1ccc(F)c(F)c1)N1CCC(n2cc(-c3nc(C4CC4)no3)nn2)C1 (stereo not given) | inconclusive: 1 µM [inhibitor, partial curve, poor fit] |
| COc1ccc(Cl)cc1NC(=O)c1c(NCc2cccnc2)sc2c1CCC(C)C2 (stereo not given) | active: 8.91 µM |
| COc1ccccc1NC(=O)C1=C(C)Nc2c(C(=O)Nc3cccc(C)c3)cnn2C1c1ccccc1Cl (stereo not given) | inconclusive: 10 µM [inhibitor, single point] |
| CCCCCCN(CCC(=O)NCCc1ccccc1)C(=O)c1cc(C)oc1C | inconclusive: 10 µM [inhibitor, single point] |
| Cc1ccccc1C(=O)N(Cc1sccc1C)C1CCS(=O)(=O)C1 (stereo not given) | inactive |
| COCC(=O)N[C@H]1C[C@H]2C(=O)Nc3ccc(/C=C/c4ccc(OC)cc4)cc3C(=O)N2C1 | inconclusive: 10 µM [inhibitor, single point] |

| Compound | Potency |
| --- | --- |
| COCCC(=O)N1CC[C@H](c2nc3ccccc3o2)C1 | inactive |
| Cc1noc(-c2cccn3c(CNC(=O)c4ccc(F)c(F)c4)nnc23)n1 | inconclusive: 17.8 µM [inhibitor, single point] |
| COCCN1CCCCCC(O)c2cc(C(=O)NCCc3c[nH]c4ccccc34)ccc21 (stereo not given) | active: 5.01 µM |
| O=C(O)C[C@@H]1CCN(C(=O)c2ccc(C(F)(F)F)cc2)C[C@@H]1CCN1CCN(c2ccc(F)cc2)CC1 | inconclusive: 15.8 µM [inhibitor, single point] |
| CC1=C[C@@H](CN2CCN(C)CC2)[C@H](C(C)C)C[C@H]1Cc1nnc(-c2ccc(C)cc2)o1 | inconclusive: 0.708 µM [inhibitor, partial curve, poor fit] |
| Cc1ccc(CN2C(=O)[C@@H]3C[C@@H](O)CN3C3(CN(Cc4ccc(F)cc4)C3)C2=O)o1 | active: 14.1 µM |
| Cc1cc(NCc2cncn2CC(C)C)n2nc(C)cc2n1 | inconclusive: 2 µM [inhibitor, single point] |
| CC(C(=O)N1CCN(c2cc(-c3ccccc3)[nH]n2)CC1)c1ccccc1 (stereo not given) | inactive |
| CN1CCN(c2ncnc3sc4c(c23)CCN(Cc2ccco2)C4)CC1 | active: 11.2 µM |
| CCOC(=O)c1ccc(CN(Cc2ccc(Br)cc2)S(=O)(=O)c2cccc(Cl)c2C)cc1 | inconclusive: 14.1 µM [inhibitor, single point] |
| COc1ccc2c(c1)CCc1c(C(=O)Nc3c(C)nn(Cc4ccccc4)c3C)noc1-2 | inconclusive: 17.8 µM [inhibitor, single point] |
| O=C1NCCN2CC3(CCN(C(=O)NCc4ccccc4)CC3)CC12 (stereo not given) | inconclusive: 8.91 µM [inhibitor, single point] |
| CCCC(=O)N1C[C@@H](CO)[C@H](c2nc(-c3ccncc3)no2)C1 | inactive |
| CCn1ncc(N2CCCC(CC(=O)N(C)Cc3ccccc3)C2)cc1=O (stereo not given) | inactive |
| CCCCC1CN2CCCC2CN1 (stereo not given) | inconclusive: 3.98 µM [inhibitor, full curve, poor fit] |
| CC(C)CN(CC1CN(C(=O)COc2ccccc2)CCO1)C(=O)c1ccc(F)cc1 (stereo not given) | inactive |
| COc1ccc(OC)c(NC(=O)c2cc3c(N4CCSCC4)nc(C)cn3n2)c1 | inconclusive: 0.126 µM [inhibitor, full curve, poor fit] |
| CN(CC1(C)CCOCC1)C(=O)c1ccccc1Cl | inactive |
| CCN(Cc1ccccc1F)C(=O)c1cc(COc2ccccc2)[nH]n1 | inconclusive: 7.08 µM [inhibitor, partial curve, poor fit] |
| CCN1C(=O)C2CC3(CCN(C(=O)c4n[nH]c(=O)c5ccccc45)CC3)CN2C1=O (stereo not given) | inactive |
| O=C(c1ccccc1F)N1CCc2nc(C3CC3)nc(-c3ccc(Cl)cc3)c2CC1 | inconclusive: 11.2 µM [inhibitor, single point] |
| COc1ccc(C)cc1NC(=O)N1CCN(C)C2(CCC(=O)N(C)CC2)C1 (stereo not given) | inactive |
| O=C1N(c2ccccn2)C[C@H]2CN(CC3CC3)CCN12 | inactive |
| COc1cccc(NC(=O)C(Cc2ccccc2)NS(=O)(=O)c2ccc3c(c2)c(=O)n(C)c(=O)n3C)c1 (stereo not given) | inactive |

| Compound | Potency |
| --- | --- |
| COCCN1C(=O)CS(=O)(=O)C12CCN(C(=O)c1cc(C)ccc1C)CC2 | inconclusive: 2 µM [inhibitor, full curve] |
| CCCc1cc(=O)oc2cc(C)c3c(-c4ccccc4)coc3c12 | inconclusive: 11.2 µM [inhibitor, single point] |
| O=c1oc2ccccc2c(N2CCN(c3ccccc3F)CC2)c1CN1CCCC1 | inconclusive: 12.6 µM [inhibitor, single point] |
| O=C(Nc1ccccc1)O[C@@H]1CO[C@H]2[C@@H]1OC[C@@H]2NCc1ccccc1 | inconclusive: 12.6 µM [inhibitor, partial curve, poor fit] |
| CCOc1ccc(C2CC(=O)c3c([nH]c(C(=O)OCC4CCCCC4)c3C)C2)cc1 (stereo not given) | inconclusive: 3.98 µM [inhibitor, partial curve, poor fit] |
| Cc1ccc(Cn2c(C3CCN(C(=O)c4ccccc4F)CC3)n[nH]c2=O)cc1 | inactive |
| COc1cc(CN2CCCCC23Cc2ccccc2CNC3=O)cc(OC)c1 (stereo not given) | inconclusive: 17.8 µM [inhibitor, single point] |
| C#CCNC(=O)c1nc(-c2ccc(Cl)cc2)c2cnccn12 | inconclusive: 2.82 µM [inhibitor, partial curve, poor fit] |
| COCCOc1ccc2c(n1)CCN(C(=O)c1nn(C)c3ccccc13)C2 | inconclusive: 7.94 µM [inhibitor, partial curve] |
| Cc1cc(=O)n(CC(=O)NC(C)CCc2ccccc2)c(N2CCc3ccccc3C2)n1 (stereo not given) | inactive |
| CCOC(=O)c1c(NC(=O)C2c3ccccc3Oc3ccccc32)sc(C)c1CC | inconclusive: 12.6 µM [inhibitor, single point] |
| Oc1ccc(NCc2ccccc2OCc2ccc(Cl)cc2)cc1 | inconclusive: 10 µM [inhibitor, single point] |
| O=C(NCCCN1CCCc2ccccc21)c1ccc(N2CC3CC(C2)[C@H]2CCCC(=O)N2C3)nc1 (stereo not given in full) | active: 11.2 µM |
| c1ccc([C@@H]2CN(C3CCOCC3)C[C@H]2COc2cccnc2)nc1 | inconclusive: 6.31 µM [inhibitor, partial curve, poor fit] |
| Cc1nc2ccc(C(=O)N3C[C@@H](CN4CCCCC4)[C@@H](CO)C3)cc2s1 | inactive |
| OCC1CN(C2CCC2)CC12CCN(Cc1ccncc1)CC2 (stereo not given) | inconclusive: 10 µM [inhibitor, single point] |
| COc1ccccc1CN1CCC2(CC1)C(=O)NCN2Cc1ccc(Cl)cc1 | inactive |
| Cc1cc(C(=O)Nc2ccc([C@@H](O)[C@H]3COCC(=O)N3CC(C)C)cc2)n(C)n1 | inconclusive: 31.6 µM [inhibitor, single point] |
| COCC(NC(=O)c1csc(-c2cccs2)n1)c1ccnn1C (stereo not given) | inactive |
| O=C(NC1CCc2n[nH]c(=O)n2CC1)c1ccc2nc[nH]c2c1 (stereo not given) | inactive |
| CSc1ccc(-c2nc3cccc(C)n3c2Nc2ccc(Cl)cc2)cc1 | inconclusive: 2 µM [inhibitor, full curve, poor fit] |
| O=C1COc2ccc(NCCOc3ccccc3)nc2CN1Cc1ccccc1F | inconclusive: 0.631 µM [inhibitor, partial curve, poor fit] |
